Measured values: PMC6667905
These are yes or no findings as the source states them, for the method shown. For some of these results: Binding seen in cells or lysates may run through a third protein. Some entries that bind do so weakly or less than the wild type. For some of these results: Sequences can lack the tags named with a protein.

By UniProt entry, the sequences of proteins in these tests, tags left out. Where a name states a change or a piece, a line headed by the entry shows the natural chain unless it says otherwise. Chains listed by the source or under a name are the forms on record and can include a tag or linker.
Arabidopsis thaliana Aurora 2 in a plant BIFC vector (Q683C9, form named): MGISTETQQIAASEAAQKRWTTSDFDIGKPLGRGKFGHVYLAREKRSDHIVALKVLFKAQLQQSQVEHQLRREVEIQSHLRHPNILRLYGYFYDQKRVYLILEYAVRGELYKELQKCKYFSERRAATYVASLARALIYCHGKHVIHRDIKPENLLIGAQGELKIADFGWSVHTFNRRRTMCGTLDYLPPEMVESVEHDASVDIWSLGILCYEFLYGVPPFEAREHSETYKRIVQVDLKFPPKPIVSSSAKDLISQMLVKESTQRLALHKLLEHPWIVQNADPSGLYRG
UniProt O64629: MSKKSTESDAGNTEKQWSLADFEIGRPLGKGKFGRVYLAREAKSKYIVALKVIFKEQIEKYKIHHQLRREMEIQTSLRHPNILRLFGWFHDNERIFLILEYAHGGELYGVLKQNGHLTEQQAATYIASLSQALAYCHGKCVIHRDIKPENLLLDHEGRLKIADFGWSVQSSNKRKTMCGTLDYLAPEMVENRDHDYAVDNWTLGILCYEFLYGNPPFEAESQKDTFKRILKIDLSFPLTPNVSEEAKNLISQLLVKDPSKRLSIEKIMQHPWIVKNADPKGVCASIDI
UniProt Q9JN11: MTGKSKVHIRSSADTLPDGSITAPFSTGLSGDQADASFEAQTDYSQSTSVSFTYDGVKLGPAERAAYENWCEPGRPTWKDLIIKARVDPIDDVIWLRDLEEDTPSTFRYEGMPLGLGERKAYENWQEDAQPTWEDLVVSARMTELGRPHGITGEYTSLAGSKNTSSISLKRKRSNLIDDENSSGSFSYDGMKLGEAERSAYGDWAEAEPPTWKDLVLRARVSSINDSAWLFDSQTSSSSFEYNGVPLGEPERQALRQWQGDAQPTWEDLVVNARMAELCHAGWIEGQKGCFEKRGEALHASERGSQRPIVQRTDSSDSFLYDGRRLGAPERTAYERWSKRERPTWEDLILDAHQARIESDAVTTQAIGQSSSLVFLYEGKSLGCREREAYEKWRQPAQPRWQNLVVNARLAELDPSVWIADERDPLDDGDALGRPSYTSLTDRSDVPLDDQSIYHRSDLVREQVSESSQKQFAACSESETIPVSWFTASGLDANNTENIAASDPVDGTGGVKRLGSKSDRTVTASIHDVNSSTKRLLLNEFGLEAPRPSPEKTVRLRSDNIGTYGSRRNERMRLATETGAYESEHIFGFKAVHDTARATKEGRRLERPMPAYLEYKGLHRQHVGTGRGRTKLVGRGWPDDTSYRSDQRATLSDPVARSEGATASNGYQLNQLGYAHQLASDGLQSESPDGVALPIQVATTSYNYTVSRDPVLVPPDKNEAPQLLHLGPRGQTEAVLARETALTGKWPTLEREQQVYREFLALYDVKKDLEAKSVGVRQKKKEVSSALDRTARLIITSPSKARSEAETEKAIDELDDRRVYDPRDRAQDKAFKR

Legend:
GST-tagged Ipl1 (yeast) = biological target: T1, GST-tagged Ipl1 (yeast) (UniProt P38991); test: pull-down; GST-tagged proteins immobilized on Glutathione HiCap Matrix; purified His-tagged VirD5 in binding buffer (50 mM NaH2PO4, 150 mM NaCl, pH 7.2, 0.1% Triton X-100), 2 h at room temperature; Western blot with anti-His HRP antibody; both purified
T1 sequence: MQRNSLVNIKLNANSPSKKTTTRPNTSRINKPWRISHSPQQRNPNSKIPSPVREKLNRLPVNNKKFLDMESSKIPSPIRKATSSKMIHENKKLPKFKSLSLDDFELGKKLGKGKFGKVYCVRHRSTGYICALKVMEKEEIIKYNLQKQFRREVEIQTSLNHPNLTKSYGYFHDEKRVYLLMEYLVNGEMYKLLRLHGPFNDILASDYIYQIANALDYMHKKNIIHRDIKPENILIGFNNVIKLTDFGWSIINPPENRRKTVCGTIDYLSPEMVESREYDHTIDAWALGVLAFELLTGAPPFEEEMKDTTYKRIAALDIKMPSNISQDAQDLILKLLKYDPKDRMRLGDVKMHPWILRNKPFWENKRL

[1] = biological target: GST-Ipl1NT, the N-terminal part of Ipl1 (1-118 aa) (yeast) (UniProt P38991); test: as above
[2] = biological target: GST-Ipl1CT, the C-terminal catalytic part of Ipl1 (101-367 aa) (yeast) (UniProt P38991); test: as above
[3] = biological target: Arabidopsis thaliana Aurora 2 in a plant BIFC vector (Arabidopsis thaliana) (UniProt Q683C9); test: split reporter; BIFC in A. thaliana protoplasts transformed with plant BIFC vectors (35S promoter; nYFP 1-154, cYFP 155-238); 18 h at 25°C in the dark; confocal microscopy
[4] = biological target: Arabidopsis thaliana Aurora 3 in a plant BIFC vector (Arabidopsis thaliana) (UniProt O64629); test: as above
[5] = biological target: T2, Arabidopsis thaliana Aurora 1 in a plant BIFC vector (Arabidopsis thaliana) (UniProt Q9M077); test: as above
T2 sequence: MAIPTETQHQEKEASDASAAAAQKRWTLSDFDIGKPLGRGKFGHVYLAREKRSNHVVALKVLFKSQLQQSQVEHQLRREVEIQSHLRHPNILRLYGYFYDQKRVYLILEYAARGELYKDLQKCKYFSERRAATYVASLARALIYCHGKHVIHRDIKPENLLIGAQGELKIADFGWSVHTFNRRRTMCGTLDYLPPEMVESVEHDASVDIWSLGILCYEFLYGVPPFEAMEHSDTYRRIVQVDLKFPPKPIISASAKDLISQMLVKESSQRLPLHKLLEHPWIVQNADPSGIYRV

[6] = biological target: T3, Dam1 in a plant BIFC vector (yeast) (UniProt P53267); test: as above
T3 sequence: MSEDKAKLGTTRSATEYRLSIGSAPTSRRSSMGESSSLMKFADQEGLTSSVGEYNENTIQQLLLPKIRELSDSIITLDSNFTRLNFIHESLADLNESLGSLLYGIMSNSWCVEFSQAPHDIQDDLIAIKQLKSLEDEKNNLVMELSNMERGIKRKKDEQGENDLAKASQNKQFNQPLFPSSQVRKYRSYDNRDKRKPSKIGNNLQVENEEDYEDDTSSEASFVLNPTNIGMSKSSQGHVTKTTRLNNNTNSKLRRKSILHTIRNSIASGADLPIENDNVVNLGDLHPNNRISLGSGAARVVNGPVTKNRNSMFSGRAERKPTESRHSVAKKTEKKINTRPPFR

[7] = biological target: T4, Ipl1 in a plant BIFC vector (yeast) (UniProt P38991); test: as above
T4 sequence: T1 sequence

[8] = biological target: T5, Ipl1 (yeast Aurora kinase) fused with the N-terminal part of Venus (VN173) (yeast) (UniProt P38991); test: split reporter; BIFC in wild-type yeast cells (BY4743); VC173 on the N-terminus of VirD5 or its truncations, VN173 on the C-terminus of the kinetochore protein; 30°C, induction 1 h in MY medium lacking methionine; confocal microscopy
T5 sequence: T1 sequence

[9] = biological target: T6, Dam1 (yeast outer kinetochore/microtubule-associated protein) fused with the N-terminal part of Venus (VN173) (yeast) (UniProt P53267); test: as above
T6 sequence: T3 sequence

His-tagged VirD5 (from UniProt Q9JN11 1-833)
binding (GST-tagged Ipl1 (yeast)): binds
binding [1]: no binding
binding [2]: binds

VirD5 in a plant BIFC vector (fused to a half of YFP) (from UniProt Q9JN11 1-833)
binding [3]: binds
binding [4]: binds
binding [5]: binds

VirD5NT in a plant BIFC vector (from UniProt Q9JN11 1-505) (domain or fragment)
binding [6]: binds
binding [7]: binds

VirD5NT, the N-terminal 505 aa of VirD5, fused with VC173 (from UniProt Q9JN11 1-505) (domain or fragment)
binding [8]: binds
binding [9]: binds
